Test results reported in PMC9911399, “Two distinct binding modes provide the RNA-binding protein RbFox with extraordinary sequence specificity”.
Positions count from the first letter of the chain named. This is one part of the list.

T1: RBFOX1 RRM RbFoxmut (Fox-RRM*) (Homo sapiens, UniProt Q9NWB1 109-208, R118D;E147R;N151S;E152T)
T1 sequence: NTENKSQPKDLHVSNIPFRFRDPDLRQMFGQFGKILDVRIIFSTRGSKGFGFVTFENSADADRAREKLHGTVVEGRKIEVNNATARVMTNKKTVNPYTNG

B1: GCGUGAA (DNA:RNA)
RNA: GGGAGACCGGAAUUCAGAUUGUCCGCGUGAAUUAAAUCCCGUCGUAGCCACCA
DNA 1: CAATCTGAATTCCGGTCTCCC
DNA 2: TGGTGGCTACGACGGGATT
B2: GCGGCGG (DNA:RNA)
RNA: B1 RNA with U28G, G29C, A30G, A31G
DNA 1: CAATCTGAATTCCGGTCTCCC
DNA 2: TGGTGGCTACGACGGGATT
B3: AGGGCGU (DNA:RNA)
RNA: B1 RNA with G25A, C26G, U28G, G29C, A30G, A31U
DNA 1: CAATCTGAATTCCGGTCTCCC
DNA 2: TGGTGGCTACGACGGGATT
B4: GACACAC (DNA:RNA)
RNA: B1 RNA with C26A, G27C, U28A, G29C, A31C
DNA 1: CAATCTGAATTCCGGTCTCCC
DNA 2: TGGTGGCTACGACGGGATT
B5: AAUUCAG (DNA:RNA)
RNA: B1 RNA with G25A, C26A, G27U, G29C, A31G
DNA 1: CAATCTGAATTCCGGTCTCCC
DNA 2: TGGTGGCTACGACGGGATT
B6: UUAGUGG (DNA:RNA)
RNA: GGGAGACCGGAAUUCAGAUUGUCCUUAGUGGUUAAAUCCCGUCGUAGCCACCA
DNA 1: CAATCTGAATTCCGGTCTCCC
DNA 2: TGGTGGCTACGACGGGATT
B7: UGGCUUG (DNA:RNA)
RNA: B6 RNA with U26G, A27G, G28C, G30U
DNA 1: CAATCTGAATTCCGGTCTCCC
DNA 2: TGGTGGCTACGACGGGATT
B8: UGAAGCC (DNA:RNA)
RNA: B6 RNA with U26G, G28A, U29G, G30C, G31C
DNA 1: CAATCTGAATTCCGGTCTCCC
DNA 2: TGGTGGCTACGACGGGATT
B9: CUUCCUG (DNA:RNA)
RNA: B6 RNA with U25C, A27U, G28C, U29C, G30U
DNA 1: CAATCTGAATTCCGGTCTCCC
DNA 2: TGGTGGCTACGACGGGATT
B10: CAUAGCU (DNA:RNA)
RNA: B1 RNA with G25C, C26A, G27U, U28A, A30C, A31U
DNA 1: CAATCTGAATTCCGGTCTCCC
DNA 2: TGGTGGCTACGACGGGATT
B11: GCGCCUG (DNA:RNA)
RNA: B1 RNA with U28C, G29C, A30U, A31G
DNA 1: CAATCTGAATTCCGGTCTCCC
DNA 2: TGGTGGCTACGACGGGATT
B12: UUACAUC (DNA:RNA)
RNA: B6 RNA with G28C, U29A, G30U, G31C
DNA 1: CAATCTGAATTCCGGTCTCCC
DNA 2: TGGTGGCTACGACGGGATT
B13: UAAUCCG (DNA:RNA)
RNA: B6 RNA with U26A, G28U, U29C, G30C
DNA 1: CAATCTGAATTCCGGTCTCCC
DNA 2: TGGTGGCTACGACGGGATT
B14: CGCAUGA (DNA:RNA)
RNA: B6 RNA with U25C, U26G, A27C, G28A, G31A
DNA 1: CAATCTGAATTCCGGTCTCCC
DNA 2: TGGTGGCTACGACGGGATT
B15: UUCGGAU (DNA:RNA)
RNA: B6 RNA with A27C, U29G, G30A, G31U
DNA 1: CAATCTGAATTCCGGTCTCCC
DNA 2: TGGTGGCTACGACGGGATT
B16: UCCGAUA (DNA:RNA)
RNA: B1 RNA with G25U, G27C, U28G, G29A, A30U
DNA 1: CAATCTGAATTCCGGTCTCCC
DNA 2: TGGTGGCTACGACGGGATT
B17: UCAAUAA (DNA:RNA)
RNA: B1 RNA with G25U, G27A, U28A, G29U
DNA 1: CAATCTGAATTCCGGTCTCCC
DNA 2: TGGTGGCTACGACGGGATT
B18: CUGCCUG (DNA:RNA)
RNA: B6 RNA with U25C, A27G, G28C, U29C, G30U
DNA 1: CAATCTGAATTCCGGTCTCCC
DNA 2: TGGTGGCTACGACGGGATT
B19: AUGCUGC (DNA:RNA)
RNA: B6 RNA with U25A, A27G, G28C, G31C
DNA 1: CAATCTGAATTCCGGTCTCCC
DNA 2: TGGTGGCTACGACGGGATT
B20: GAUUAUG (DNA:RNA)
RNA: B1 RNA with C26A, G27U, G29A, A30U, A31G
DNA 1: CAATCTGAATTCCGGTCTCCC
DNA 2: TGGTGGCTACGACGGGATT
B21: UCGGUAA (DNA:RNA)
RNA: B1 RNA with G25U, U28G, G29U
DNA 1: CAATCTGAATTCCGGTCTCCC
DNA 2: TGGTGGCTACGACGGGATT
B22: CGACUAA (DNA:RNA)
RNA: B1 RNA with G25C, C26G, G27A, U28C, G29U
DNA 1: CAATCTGAATTCCGGTCTCCC
DNA 2: TGGTGGCTACGACGGGATT
B23: UGUCCUG (DNA:RNA)
RNA: B6 RNA with U26G, A27U, G28C, U29C, G30U
DNA 1: CAATCTGAATTCCGGTCTCCC
DNA 2: TGGTGGCTACGACGGGATT
B24: GACUUCU (DNA:RNA)
RNA: B1 RNA with C26A, G27C, G29U, A30C, A31U
DNA 1: CAATCTGAATTCCGGTCTCCC
DNA 2: TGGTGGCTACGACGGGATT
B25: GCUGACA (DNA:RNA)
RNA: B1 RNA with G27U, U28G, G29A, A30C
DNA 1: CAATCTGAATTCCGGTCTCCC
DNA 2: TGGTGGCTACGACGGGATT
B26: ACCCAGC (DNA:RNA)
RNA: B1 RNA with G25A, G27C, U28C, G29A, A30G, A31C
DNA 1: CAATCTGAATTCCGGTCTCCC
DNA 2: TGGTGGCTACGACGGGATT
B27: GACGCUC (DNA:RNA)
RNA: B1 RNA with C26A, G27C, U28G, G29C, A30U, A31C
DNA 1: CAATCTGAATTCCGGTCTCCC
DNA 2: TGGTGGCTACGACGGGATT
B28: UGGGAGG (DNA:RNA)
RNA: B6 RNA with U26G, A27G, U29A
DNA 1: CAATCTGAATTCCGGTCTCCC
DNA 2: TGGTGGCTACGACGGGATT
B29: AUUAUCG (DNA:RNA)
RNA: B6 RNA with U25A, A27U, G28A, G30C
DNA 1: CAATCTGAATTCCGGTCTCCC
DNA 2: TGGTGGCTACGACGGGATT
B30: AAACCUU (DNA:RNA)
RNA: B6 RNA with U25A, U26A, G28C, U29C, G30U, G31U
DNA 1: CAATCTGAATTCCGGTCTCCC
DNA 2: TGGTGGCTACGACGGGATT
B31: CCAGCGG (DNA:RNA)
RNA: B6 RNA with U25C, U26C, U29C
DNA 1: CAATCTGAATTCCGGTCTCCC
DNA 2: TGGTGGCTACGACGGGATT

What follows are binders tested against T1, RBFOX1 RRM RbFoxmut (Fox-RRM*) (assay: EMSA; HiTS-Eq, 1 nM pool, 10 min; buffer printed only for the single-RNA assays: 10 mM Tris pH 7.5, 150 mM NaCl, 3.4 mM EDTA, 0.001% NP-40, 30 C). Conditions: tags: His6 N-terminal (pET28a); label: 5' 32P.
Summary of the method: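 Purified wild-type or mutant RbFox RRM at increasing concentrations was equilibrated with 1 nM of 5′-radiolabelled RNA carrying 7 randomized nucleotides for 10 min in 50 µL. Unbound RNA was separated by 8% native PAGE and sequenced. Relative association constants came from read-count changes of each RNA species compared with the control reaction, normalised to the cognate motif.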

Binder | binding signal
B1 | 0.119 KA relative to UGCAUGU
B2 | 0.0982 KA relative to UGCAUGU
B3 | 0.118 KA relative to UGCAUGU
B4 | 0.0614 KA relative to UGCAUGU
B5 | 0.141 KA relative to UGCAUGU
B6 | 0.0929 KA relative to UGCAUGU
B7 | 0.92 KA relative to UGCAUGU
B8 | 0.0899 KA relative to UGCAUGU
B9 | 0.0773 KA relative to UGCAUGU
B10 | 0.114 KA relative to UGCAUGU
B11 | 0.148 KA relative to UGCAUGU
B12 | 0.0518 KA relative to UGCAUGU
B13 | 0.0523 KA relative to UGCAUGU
B14 | 0.871 KA relative to UGCAUGU
B15 | 0.0575 KA relative to UGCAUGU
B16 | 0.0878 KA relative to UGCAUGU

Binder | binding signal
B17 | 0.0835 KA relative to UGCAUGU
B18 | 0.247 KA relative to UGCAUGU
B19 | 0.126 KA relative to UGCAUGU
B20 | 0.146 KA relative to UGCAUGU
B21 | 0.133 KA relative to UGCAUGU
B22 | 0.0856 KA relative to UGCAUGU
B23 | 0.133 KA relative to UGCAUGU
B24 | 0.0606 KA relative to UGCAUGU
B25 | 0.071 KA relative to UGCAUGU
B26 | 0.107 KA relative to UGCAUGU
B27 | 0.0618 KA relative to UGCAUGU
B28 | 0.106 KA relative to UGCAUGU
B29 | 0.129 KA relative to UGCAUGU
B30 | 0.0712 KA relative to UGCAUGU
B31 | 0.0846 KA relative to UGCAUGU
